± gives the standard deviation of the averaged measurements. The list shows a part of the results.
These sequences were tested on PfAP2-LT AP2 domain (GST-tagged) (assay: gcPBM binding intensity (ln(normalized median fluorescence intensity)); higher = stronger DNA binding).
Method in brief: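 Each value is the highest Masliner-normalised natural-log median intensity across replicate spots of either orientation of a probe. The probes were primer-extended double-stranded 36-bp intergenic genomic sequences on an Agilent 4 × 180k array, alongside negative controls, exposed for 1 h to GST-tagged P. falciparum DNA-binding domains expressed in E. coli. Bound protein was picked up with Alexa488 anti-GST antibody and scanned at 488 nm.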

Sequence	gcPBM binding intensity (ln)
TAAGACTATTAAAAAATTGAGTACATGAACTGTTCA [GTGCAC_negctrl_site670]	8.41 ± 0.34
AAATATAAAAAATATACACACATATATAATATATAT [CACACA_site2963]	9.01 ± 0.4
TGTATATTTGATTCATGTACATATTTTATTTTAACT [XGTACX_site5169]	8.82 ± 0.56
CAGATTTATTCAAACGCATGCTGTTTTAAAATAAAA [TGCATGCA_site874]	8.4 ± 0.47
CCTATATAATTATAATGTACTTGTAAAAAATATAAC [XGTACX_site2864]	8.61 ± 0.33
AATGTATTTAAACTGACACACAAAAAAAATAAAATA [CACACA_site2138]	8.89 ± 0.62
ATATTGTAAGTAAACACACACACATCTATAGGTATA [CACACA_site6462]	9.6 ± 0.23
TTTAAAATATTAAAATGTACATATATATATATATAT [XGTACX_site6784]	9.11 ± 0.34
ATCCGCTGCCTTTTGGTGCAGAACATAATCATGTAA	8.61 ± 0.38
TATATATATATATATACACACATACATATATATATT [CACACA_site8185]	9.79 ± 0.18
ACATAAATATATTTTTCACACATCCTTAGTTATGAA [CACACA_site5179]	8.65 ± 0.43
ATATTTACTCACGTCTTGCACTGAGCAAGCATTATA	8.87 ± 0.36
TCATGTTTTTAATATTGTACTCTCATTTTATATATC [XGTACX_site8412]	8.93 ± 0.45
AGCTATTAATTTATTACATGCAAGATTAAAAGACTA [TGCATGCA_site281]	8.56 ± 0.41
TTTTGATTTTTTTATTGTACCCATAAACATATAATT [XGTACX_site5202]	8.57 ± 0.59
GGTATTTATGGACGCGTGCACACACATATGAACAAA	9.45 ± 0.4
TATTTTTGAAGTTGCACACACAAAAATAAAAAGTAT [CACACA_site418]	9.12 ± 0.34
TACAAACAATTAAACAAACACACATATACATGTATA [CACACA_site2061]	8.9 ± 0.38
ATTTTTTATGAAAACATAAAAAAATGAGATAACCAT [CACACA_negctrl_site894]	8.71 ± 0.4
AAAAAAAAAAGACACACACACACACGGACACATACA [CACACA_site7363]	10.3 ± 0.13
AAAAAAAAAAAAAAATCACACATTGGTTAAATATTA [CACACA_site5344]	8.46 ± 0.3
CTATCAAATAATAGCAAACACACAAAAAATAAAAAA [CACACA_site4147]	9.04 ± 0.45

Sequence	gcPBM binding intensity (ln)
ATTCATACATGCACACGTACATATTTAAATATAAAA [XGTACX_site8388]	9.04 ± 0.36
TATTTATACATACGTACACACAAATATTAAAATATA [CACACA_site7004]	8.89 ± 0.38
ATATATTATAAATGTAGTACCGTTACATAGTCATAG [XGTACX_site390]	8.95 ± 0.4
TATATATTGCCCTTCACACACACACCCATATATATA [CACACA_site2493]	9.77 ± 0.26
CACACCACCAACAAAAGTACATACATATATATATAT [XGTACX_site5781]	9.65 ± 0.14
ACTACGAGTCGTAGAGTGCAGTCTGGAGAAAAGTAC [GTGCAC_site9769]	8.98 ± 0.53
ATCAAGCACGAACACACACACACACGCACGCCCACA [CACACA_site6308]	10.3 ± 0.3
TTTTTTTTTTTCTCCATACACACTTGATAAAACTTT [CACACA_site615]	8.6 ± 0.54
ATTTTTTTTTTTTGTACATACCACATATACAAAACA [CACACA_negctrl_site1240]	8.75 ± 0.44
TAATTGATTCTTCACCGTACTCACACATATATATAT [XGTACX_site6530]	9.19 ± 0.38
ATATATTGAACCTATGCATGTAAAATATATGTAATA [TGCATGCA_site644]	8.88 ± 0.43
AAATATTAAATGGAAAACAAATATATATATCTTAAT [XGTACX_negctrl_site383]	8.57 ± 0.43
TGTGTGGATATATGTATGCACTACCCTTTGGGTCAT [GTGCAC_site9506]	8.88 ± 0.5
TGTAAGTATTCTTGAGGTACACATATAAATATAGTA [XGTACX_site3207]	8.69 ± 0.43
AATATTATATAATAAAGTACATATATATTCATATTT [XGTACX_site7204]	8.66 ± 0.4
ATATATATATATAGGAGTACATGAAATACTTAAAAA [XGTACX_site8851]	8.83 ± 0.48
GTGTGAAGATATAAATGCATTTTTTTATACATTTTC [CACACA_negctrl_site117]	8.71 ± 0.41
AAAAAAGAAATAATCAAATAAATAAAAAAGATGAAT [XGTACX_negctrl_site607]	8.84 ± 0.54
TATAAATACATCCTATACTTCTCTTTTACAGTTTTA [CACACA_negctrl_site1283]	8.6 ± 0.5
GACATTAATTATTTGACACACGACTGGGTGGTGATT [CACACA_site306]	9.01 ± 0.39
TGATTCAATTTATGCACACTAAAAATTAATTATATT [CACACA_site271]	8.6 ± 0.48
TTTTTTTTTTATACATGTACTTAAAAGTAGCACCTT [XGTACX_site1855]	8.68 ± 0.53
